Results published in PubChem BioAssay AID1508642 (National Center for Advancing Translational Sciences (NCATS), 2021).
The whole screen tested about 43,000 compounds, of which about 200 (0.47%) were called active. About 12% were inconclusive and are not listed. Calls follow the shape of the dose curve; as a rule, active = well fitted cell-killing curve with a large enough effect; inconclusive = small, poorly fitted or top-dose-only effect, or effect the other way; inactive = flat fitted curve, though single readings scatter. Some of the results follow.

assay: Cell viability qHTS assay in S16 Pmp22-F2sN cells; details: S16 Pmp22-F2sN Schwann cells (luciferase reporters placed in the Pmp22 gene) viability, CellTiter-Glo, 24 h; series mostly up to 57.5 µM; activity change, negative = cytotoxicity: at the top concentration; also: nearly all actives have a fitted effect of over 65% in size
Outline: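 Luminescence from CellTiter-Glo, read by CCD camera after a 15 min room-temperature incubation, served as the viability signal. Reporter Schwann cells (S16 Pmp22-F2sN) had been treated with pin-transferred compounds for 24 h at 37C.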
% is scaled to controls: 0 for no effect and ±100 for the full control effect.

Row | Compound | activity change, negative = cytotoxicity
1 | CCCNc1nc(NCc2ccccc2OC)c2cnn(C)c2n1 | inactive: -7.63%
2 | CCN(CCCNC(=O)c1cc2c(=O)[nH]c3ccc(C)cc3c2s1)c1ccc(C)cc1 | inactive: -1.75%
3 | COc1ccc(C2C(=O)N(C3CCCCC3)CC(=O)N2Cc2ccccc2Cl)cc1OC (stereo not drawn) | inactive: 11.8%
4 | COc1ccc(-c2nn(CC(=O)Nc3ccccc3F)c3c2cnc2ccc(F)cc23)cc1 | inactive: 2.33%
5 | CCOC(=O)c1cc(OC(=O)c2ccc(Cl)cc2)n(-c2ccccc2)n1 | inactive: 0.477%
6 | Cc1ccc(C)c(N2CCN(CCCNC(=O)Cn3ncc4c([nH]c5ccccc54)c3=O)CC2)c1 | inactive: -5.79%
7 | Cc1ccc(-c2nc(S(=O)(=O)c3ccc(C)cc3)c(N3CCN(c4ccccc4)CC3)o2)cc1 | inactive: -6.57%
8 | COc1ccc(CNC(=O)Cn2ncn3nc(-c4cccs4)cc3c2=O)cc1 | inactive: -6.54%
9 | COc1ccc(N2CCN(S(=O)(=O)CCNC(=O)c3ccc(C(F)(F)F)cc3)CC2)cc1 | inactive: 13.6%
10 | CCc1ccc(-n2nc(C)c3c(C(=O)NCCc4ccc(OC)c(OC)c4)cc(C)nc32)cc1 | inactive: -5.03%
11 | CCc1cccc(C)c1NC(=O)Cn1c(=O)cc(C(F)(F)F)c2c(C)nn(C)c21 | inactive: 0.161%
12 | Cc1cccc(N2CCN(c3nc4ccccc4c(=O)n3-c3ccc(Cl)cc3)CC2)c1C | inactive: 13.9%
13 | Cc1ccc(C)c(S(=O)(=O)NCC(c2ccco2)S(=O)(=O)c2ccc(F)cc2)c1 (stereo not drawn) | inactive: 2.35%
14 | CCC1CCCCN1C(=O)c1nn(-c2ccc(C)cc2)c(=O)c2c1c1ccccc1n2C (stereo not drawn) | inactive: 5.66%
15 | CCOc1ccc(CCNC(=O)c2cnc3sc(N4CCOCC4)nn3c2=O)cc1 | inactive: 10.6%
16 | O=C(NCc1cccs1)C1CCN(C(=O)N2CCOc3ccccc32)CC1 | inactive: 3.19%
17 | O=C(Nc1c(-c2ccccc2)nc2ccccn12)c1ccc(Br)cc1 | inactive: -21.8%
18 | Cc1noc(C)c1S(=O)(=O)N(CC(=O)NCc1ccccc1Cl)c1ccc(C(C)C)cc1 | inactive: -13%
19 | O=C(Nc1ccc(F)cc1F)c1c2c(nc3ccccc13)C(=O)N(C1CCCCC1)C2 | inactive: -3.1%
20 | O=C(CCn1c(=O)c2cccn2c2ccc(F)cc21)NCCc1ccccc1Cl | inactive: -13.1%
21 | CCCOc1ccc(Nc2nc(SC)ncc2C(=O)OCC)cc1 | inactive: 2.91%
22 | COC(=O)c1ccc(NC(=O)Nc2nnc(N(C)C3CCCCC3)s2)cc1 | inactive: 11.9%
23 | COc1ccccc1NC(=O)Cn1c(=O)n(Cc2ccccc2)c(=O)c2ccccc21 | inactive: -1.43%
24 | COc1ccc(CN2COc3ccc4c(C)cc(=O)oc4c3C2)cc1 | inactive: 0.582%
25 | COc1cccc(NC(=O)c2oc3ccccc3c2NC(=O)C23CC4CC(CC(C4)C2)C3)c1 | inactive: 7.21%

Row | Compound | activity change, negative = cytotoxicity
26 | COc1cccc2c1Oc1nc(-c3ccccc3)nc(SCC(=O)N3CCCCC3)c1C2 | inactive: 0.579%
27 | COc1ccc(NC(=O)C(=O)NCCc2csc(-c3ccc(Cl)cc3)n2)cc1 | inactive: 3.94%
28 | Cc1cc(C)cc(-n2c(SCC(=O)Nc3nnc(C)s3)nc3c([nH]c4ccccc43)c2=O)c1 | inactive: 14.3%
29 | COC(=O)c1ccc(NC(=O)Cc2coc3cc(C)ccc23)cc1 | inactive: 7.64%
30 | COc1ccc(-c2nc3nc(C)cc(Nc4ccc(C(C)=O)cc4)n3n2)cc1 | inactive: -6.7%
31 | Cc1coc2c(C)c3oc(=O)c(CC(=O)N4CCCCC4)c(C)c3cc12 | inactive: 8.63%
32 | CCN(C(=O)COc1cc(=O)n(C)c2ccccc12)c1cccc(C(F)(F)F)c1 | inactive: -0.0206%
33 | CCOc1ccc(CCNC(=O)c2ccc(CS(=O)(=O)Cc3ccccc3Cl)o2)cc1OCC | inactive: 5.11%
34 | Cc1ccccc1CN1CCc2nc(Nc3ccc4c(c3)OCCO4)ncc2C1 | inactive: -21.5%
35 | CCOc1ccc(-c2ccc(NS(=O)(=O)c3cc(C)c(C)cc3C)cc2)nn1 | inactive: -7.91%
36 | CCOc1ccc(C(=O)Nc2ccc(-c3nc4cc(CC)ccc4o3)cc2)cc1 | inactive: 1.97%
37 | O=C(c1cc2c(=O)[nH]c3ccccc3c2s1)N1CCN(c2ccc(F)cc2)CC1 | inactive: 21.6%
38 | CC(NC(=O)CCn1c(=O)c2cccn2c2ccc(F)cc21)c1ccccc1 (stereo not drawn) | inactive: -4.79%
39 | COc1ccc(-n2c(/C=C/c3cc(OC)c(OC)cc3OC)nc3cc4ccccc4cc3c2=O)cc1Cl | inactive: 6.39%
40 | Cc1ccc(OCCSc2nc3ccc(NC(=O)COc4ccc(F)cc4)cc3s2)cc1 | inactive: 21.4%
41 | O=C(COc1ccccc1)Nc1ccc(C(=O)OCc2cc(=O)n3nc(C4CC4)sc3n2)cc1 | inactive: 4.28%
42 | Cc1nc2nc(SCC(=O)NCc3ccccc3)nn2c(C)c1Cc1ccccc1Cl | inactive: 1%
43 | CCOC(=O)c1cc(-c2ccc(F)cc2)n(CC(=O)NC2CCCCC2)c1C | inactive: 9.29%
44 | Cc1cc(C)n2c(Nc3c(C)cccc3C)c(-c3ccsc3)nc2n1 | inactive: 21%
45 | O=C(CN1CCCN(Cc2ccccc2Cl)S1(=O)=O)Nc1ccc2c(c1)OCCO2 | inactive: 2.02%
46 | O=C(Cc1cccs1)NC1CC(=O)N(c2ccccc2)C1 (stereo not drawn) | inactive: 0.398%
47 | CCc1cccc(C)c1NC(=O)CN1CCCN(Cc2ccc(C)cc2)S1(=O)=O | inactive: -2.88%
48 | Cc1ccc(C)c(CN2CCC(CNC(=O)Cn3ncc4c([nH]c5ccccc54)c3=O)CC2)c1 | inactive: 1.45%
49 | CCn1c2ccccc2c2nnc(N3CCN(c4cccc(C)c4C)CC3)nc21 | inactive: 2.39%
50 | O=C(NCCCN1CCOCC1)c1ccc2c(c1)N(Cc1ccccc1)C(=O)c1ccccc1S2 | inactive: 8.64%

Row | Compound | activity change, negative = cytotoxicity
51 | Cc1cccc(OCCCCn2nnc3sc4c(c3c2=O)CCC(C)C4)c1 (stereo not drawn) | inactive: -2.64%
52 | O=C(Cn1nc(N2CCN(c3ccccc3)CC2)ccc1=O)NCc1cccc(Cl)c1 | inactive: 5.34%
53 | CCOC(=O)CSc1nc2sc3c(c2c(=O)n1Cc1ccccc1)CC(C)CC3 (stereo not drawn) | inactive: 27%
54 | Cc1ccc(-n2ncc3c(NCCc4ccccc4)ncnc32)cc1C | inactive: 1.67%
55 | CCOc1ccccc1CNC(=O)CN1C(=O)CCCc2ccccc21 | inactive: -1.28%
56 | CCOc1ccc(NC(=O)NC(C)c2c(-n3cccc3)sc(C)c2C)cc1 (stereo not drawn) | inactive: 0.466%
57 | Cn1c(=O)c2c(nc(NCCc3ccccc3)n2Cc2ccc(Cl)c(Cl)c2)n(C)c1=O | inactive: 8.29%
58 | CC(C)c1nn2c(=O)cc(COC(=O)c3ccccc3NC(=O)c3cccs3)nc2s1 | inactive: 6.22%
59 | CCCN(Cc1cccs1)C(=O)Nc1ccccc1C | inactive: 1.91%
60 | CC1CCCN(c2csc3ccccc3c2=O)C1 (stereo not drawn) | inactive: 0.0615%
61 | COc1ccc(S(=O)(=O)NCCc2cn3ccsc3n2)cc1OC | inactive: 1.45%
62 | CCOc1ccc(N(Cc2cc3cc(C)ccc3[nH]c2=O)C(=O)c2cccc(Cl)c2)cc1 | inactive: 6.56%
63 | COC(=O)c1ccc(OC)c(CN2CCCN(Cc3ccc(C)cc3)S2(=O)=O)c1 | inactive: -4.36%
64 | Cc1nc2sccn2c(=O)c1S(=O)(=O)NCc1ccccc1 | inactive: -6.38%
65 | Cc1ccc(C)c(N2CCN(C(=O)c3ccc4c(c3)c(C)c(C)n4C)CC2)c1 | inactive: -3.77%
66 | CCOc1ccccc1C1CC(=O)NC(C)=C1C(=O)OCc1ccc(C)cc1 (stereo not drawn) | inactive: 16.6%
67 | Cc1cccc(C)c1OCC(=O)N(Cc1ccc(Cl)cc1)CC1CCCO1 (stereo not drawn) | inactive: -3.08%
68 | Cc1oc2c(c1C(=O)Nc1ccc(Cl)cc1F)C1=NCCN1C=N2 | inactive: 23.1%
69 | COc1ccc(Cl)cc1C(=O)NCC(c1ccc(N(C)C)cc1)N1CCOCC1 (stereo not drawn) | inactive: 2.96%
70 | CCOC(=O)c1ccc(NC(=O)c2cc3c(=O)n(C)c4ccccc4c3n2C)cc1 | inactive: 0.919%
71 | Cn1c(=O)cc(SCC(=O)Nc2cccc(C#N)c2)c2ccc(Cl)cc21 | inactive: -5.67%
72 | Cc1ccc(C)c(NC(=O)C(=O)NCCc2csc(-c3cccc(F)c3)n2)c1 | inactive: 9.55%
73 | COc1cc2c(C(=O)N3CCN(c4ccc(C)cc4)C(C)C3)cn(CC(C)C)c(=O)c2cc1OC (stereo not drawn) | inactive: -18.4%
74 | Cc1nc2ccccn2c(=O)c1NC(=O)c1ccccc1Cl | inactive: -2.19%
75 | COc1cccc(NC(=O)CCc2nc(-c3cc(OC)c(OC)c(OC)c3)no2)c1 | inactive: -3.34%

Row | Compound | activity change, negative = cytotoxicity
76 | COc1ccc(CCNC(=O)c2cc(-c3ccc(Cl)cc3)on2)cc1OC | inactive: 7.49%
77 | CCc1ccc(NC(=O)Cn2ccn(-c3cccc(Cl)c3)c(=O)c2=O)cc1 | inactive: 6.57%
78 | COc1ccc(C(=O)N2CCC(c3ccncc3)CC2)cc1OC | inactive: -1.93%
79 | Cc1ccc(CN2CCc3nc(N4CCN(C)CC4)ncc3C2)cc1 | inactive: 1.27%
80 | COc1ccc(N2CCN(C(=O)Cc3noc4ccc(C)cc34)CC2)cc1 | inactive: 0.0813%
81 | CCOC(=O)C1=C(CN2CCN(c3ccccc3F)CC2)NC(=O)NC1c1ccc(OC)cc1 (stereo not drawn) | inactive: -10.5%
82 | COC(=O)CSc1ccc2nnc(CCNS(=O)(=O)c3ccc(C)cc3)n2n1 | inactive: 0.616%
83 | CCc1cccc(C)c1Nc1c(-c2cccc(O)c2)nc2cnccn12 | inactive: -21.1%
84 | COc1ccc(/C=C/c2nc(C#N)c(NC3CCCCC3)o2)cc1OC | inactive: -22%
85 | O=C(CCS(=O)(=O)c1cc2c3c(c1)CCN3C(=O)CC2)NCc1ccc(Cl)cc1 | inactive: -14.7%
86 | CCOc1ccccc1NC(=O)Cn1nc2c3cc(F)ccc3n(Cc3cccc(C)c3)cc-2c1=O | inactive: -1.36%
87 | COc1ccccc1CNC(=O)Cn1c(-c2cccs2)cc2cc(F)ccc21 | inactive: 1.56%
88 | COc1ccc(-n2c(SCC(=O)Nc3cc(C)cc(C)c3)nc3c(oc4ccccc43)c2=O)cc1 | inactive: 11.6%
89 | CCOc1ccc(-c2cc(NC(=O)c3c(F)cccc3F)c(C(=O)OC)s2)cc1 | inactive: -23.1%
90 | COc1ccccc1N1CCN(C(=O)c2nc(-c3ccc(C)cc3)n3c2CCCCC3)CC1 | inactive: 9.71%
91 | CC1CCN(C(=O)c2ccccc2NC(=O)c2nsc3ccccc23)CC1 | inactive: -0.731%
92 | CCc1cccc(NC(=O)C2CCCN2S(=O)(=O)c2ccc3c(c2)n(C)c(=O)c(=O)n3C)c1 (stereo not drawn) | inactive: 0.0413%
93 | Cc1cc(C)c(/C=C/c2onc(C)c2S(=O)(=O)N2CCC(C(=O)NCC(C)c3ccccc3)CC2)c(C)c1 (stereo not drawn) | inactive: -8.22%
94 | Cc1cc(NC(=O)CC(C)C)cc(-c2nc3ncccc3o2)c1O | inactive: 17.4%
95 | COc1ccc(NC(=O)c2cc(S(=O)(=O)N3CCCCC3)c[nH]2)cc1Cl | inactive: -0.284%
96 | COC(=O)c1c(NC(=O)C(C)Oc2ccc(Cl)cc2Cl)sc2c1CCCC2 (stereo not drawn) | inactive: 0.309%
97 | Cc1nn(C)c2c1c(-c1ccccc1)cc(=O)n2C(C)C(=O)NCCc1ccc(Cl)cc1 (stereo not drawn) | inactive: -28.2%
98 | CCN(CC)CCNC(=O)c1ccc2c(c1)NC(=O)C(CS(=O)(=O)Cc1ccc(F)cc1Cl)N2 (stereo not drawn) | inactive: 13.7%
